Source: the supplement of paper PMC7826260
The other results are listed elsewhere or left out. One pool of 16,384 single-stranded DNAs met each Rep nickase domain in vitro (1 h at 37 °C, 3 µM enzyme); the outer parts of the 90-letter strands are left off. Uncut reads are compared with the no-enzyme pool on a log2 scale; strong cutting gives strongly negative numbers. There is no active / inactive call. Counts are relative to all reads; where an enzyme cuts many sequences, the uncut ones exceed 0.

Tests used:
Assay in all cases: uncleaved DNA left, log2 of reads against the no-enzyme library (log2 ratio); higher = less cleavage (more negative = more Rep cleavage of the k-mer); sequences stand for … in CTCGTCCG…ACCGGAGA
[1] = tested on: T1, Rep nickase domain of Muscovy duck circovirus
T1 sequence (residues 1-111 of Rep, tag left off): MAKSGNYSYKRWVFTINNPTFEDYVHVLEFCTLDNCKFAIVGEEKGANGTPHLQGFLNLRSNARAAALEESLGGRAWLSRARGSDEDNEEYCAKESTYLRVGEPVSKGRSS
Method: (§1)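 A pool of 90-nt single-stranded DNAs with seven random bases just before the constant AC of the nick site (name = the seven bases) was cut by 3 µM recombinant His6-SUMO-tagged Rep nickase domain (300 nM DNA, 50 mM HEPES pH 8.0, 50 mM NaCl, 1 mM MnCl2, 1 h, 37 °C, three replicates). Uncut DNA was amplified and sequenced.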

[2] = tested on: T2, Rep nickase domain of banana bunchy top virus
T2 sequence (residues 1-94 of Rep, tag left off): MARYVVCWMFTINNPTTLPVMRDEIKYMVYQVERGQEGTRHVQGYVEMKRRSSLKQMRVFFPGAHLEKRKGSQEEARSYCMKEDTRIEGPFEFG
Method: as §1

[3] = tested on: T3, Rep nickase domain of cabbage leaf curl virus
T3 sequence (residues 1-116 of Rep, tag left off): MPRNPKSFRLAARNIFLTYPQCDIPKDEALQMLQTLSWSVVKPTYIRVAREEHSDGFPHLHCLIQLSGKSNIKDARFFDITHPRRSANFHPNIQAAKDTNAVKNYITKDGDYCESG
Method: as §1

[4] = tested on: T4, Rep nickase domain of chickpea chlorotic dwarf virus
T4 sequence (residues 1-124 of Rep, tag left off): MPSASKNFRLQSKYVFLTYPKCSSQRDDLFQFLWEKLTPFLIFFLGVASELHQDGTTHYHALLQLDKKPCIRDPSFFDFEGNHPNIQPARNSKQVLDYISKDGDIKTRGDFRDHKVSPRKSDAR
Method: as §1

[5] = tested on: T5, Rep nickase domain of faba bean necrotic yellows virus
T5 sequence (residues 1-98 of Rep, tag left off): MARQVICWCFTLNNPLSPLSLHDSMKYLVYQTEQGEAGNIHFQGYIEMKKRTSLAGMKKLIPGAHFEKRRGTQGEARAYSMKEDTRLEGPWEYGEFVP
Method: as §1

[6] = tested on: T6, Rep nickase domain of maize striate mosaic virus
T6 sequence (residues 1-117 of Rep, tag left off): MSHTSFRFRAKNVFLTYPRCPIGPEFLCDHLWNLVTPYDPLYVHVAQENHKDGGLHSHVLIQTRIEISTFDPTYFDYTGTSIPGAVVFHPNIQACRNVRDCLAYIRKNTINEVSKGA
Method: as §1

[7] = tested on: T7, Rep nickase domain of porcine circovirus 2
T7 sequence (residues 2-116 of Rep, tag left off): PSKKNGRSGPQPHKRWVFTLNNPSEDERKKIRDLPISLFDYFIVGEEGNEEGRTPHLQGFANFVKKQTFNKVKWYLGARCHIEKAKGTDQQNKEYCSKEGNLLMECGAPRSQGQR
Method: as §1

[8] = tested on: T8, Rep nickase domain of tomato golden mosaic virus
T8 sequence (residues 1-124 of Rep, tag left off): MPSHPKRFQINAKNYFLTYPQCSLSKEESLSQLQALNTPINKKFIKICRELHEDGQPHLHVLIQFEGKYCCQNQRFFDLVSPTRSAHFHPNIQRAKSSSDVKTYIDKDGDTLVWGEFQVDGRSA
Method: as §1

[9] = tested on: T9, Rep nickase domain of tomato yellow leaf curl virus
T9 sequence (residues 1-136 of Rep, tag left off): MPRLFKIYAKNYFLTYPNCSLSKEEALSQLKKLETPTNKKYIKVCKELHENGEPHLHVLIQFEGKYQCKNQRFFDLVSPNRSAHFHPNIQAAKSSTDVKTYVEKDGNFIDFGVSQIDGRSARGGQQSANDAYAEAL
Method: as §1

[10] = tested on: T10, Rep nickase domain of wheat dwarf virus
T10 sequence (residues 1-137 of Rep, tag left off): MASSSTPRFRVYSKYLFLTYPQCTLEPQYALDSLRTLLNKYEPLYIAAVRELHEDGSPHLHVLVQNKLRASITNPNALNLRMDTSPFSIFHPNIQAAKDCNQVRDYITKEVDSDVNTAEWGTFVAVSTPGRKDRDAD
Method: as §1

Sequence	uncleaved DNA left (log2) [1]	uncleaved DNA left (log2) [2]	uncleaved DNA left (log2) [3]	uncleaved DNA left (log2) [4]	uncleaved DNA left (log2) [5]	uncleaved DNA left (log2) [6]	uncleaved DNA left (log2) [7]	uncleaved DNA left (log2) [8]	uncleaved DNA left (log2) [9]	uncleaved DNA left (log2) [10]
TCGTCCT	-0.414	-0.286	-0.172	-1.89	-0.191	-0.302	-3.15	-0.276	-0.196	-0.184
TGGACGT	0.105	0.246	0.997	2.06	0.132	2.25	0.318	0.115	0.109	0.155
CAACAGG	-0.088	-0.0551	-0.138	0.196	-0.112	-0.444	-0.0345	-0.0678	0.0253	-0.126
CACCCGA	-0.129	-0.15	-0.423	-0.882	-0.15	-1.1	-0.162	-0.17	-0.0614	-0.16
CGTACTA	-0.0107	-0.0749	-0.0429	-0.219	0.0303	0.788	-0.12	-0.11	0.0324	0.125
CCCTCTT	-2.44	-0.577	-0.288	-2.24	-0.384	-0.513	-2.95	-0.215	-0.258	-0.449
AGAGTAG	-0.0283	0.0488	-0.521	-0.464	0.0914	-1.11	0.247	0.13	0.129	-0.0341
CACGGCC	-0.0279	-0.092	-0.213	-0.0143	0.0267	-0.561	-0.0742	-0.123	-0.119	-0.134
CTCATTA	-0.115	0.0858	-0.0929	-1.29	-0.00341	-0.905	-0.216	-0.0498	0.0464	0.148
GCACGAA	-0.00116	-0.00428	-0.157	0.162	-0.0416	-0.469	0.0285	0.0483	0.0218	-0.1
CTCGTAG	0.12	0.0532	-0.738	-0.6	0.0206	-1	0.233	0.0718	0.062	-0.031
GTCTGGT	-0.101	-0.0182	0.322	0.77	0.0626	1.63	-0.176	0.0445	0.0299	-0.0404
CCTAAAG	0.0161	0.00946	-0.845	-0.303	0.106	-1.02	0.25	0.00394	-0.0793	-0.0755
TGCTTCG	0.101	-0.0828	-0.971	-0.214	0.104	-1.02	0.0836	-0.272	-0.111	-0.156
TGACGTA	0.0959	0.0447	0.0888	0.129	0.0552	0.743	-0.0147	-0.00483	0.0481	0.0333
TGCGGTC	0.00555	-0.000349	-0.265	-0.375	0.0347	-0.537	-0.0189	-0.00739	0.0461	-0.0468
GTATCCT	-0.0745	0.138	0.504	1.12	0.0366	1.94	0.0702	0.178	0.141	0.111
CGGCTGC	0.0711	-0.0418	0.0157	0.537	-0.0346	1.52	0.0947	0.0455	0.00191	0.0325
CGCGCAA	-0.143	-0.0377	-0.26	-0.0374	-0.0216	-0.271	-0.181	-0.162	-0.0816	-0.0939
GTTACTC	-0.0596	0.0895	0.343	0.528	-0.107	1.51	-0.0218	-0.0849	0.00608	0.044
GTACCGC	0.0394	0.00551	0.0938	0.175	0.0602	0.025	-0.0318	0.0107	0.0562	0.0376
ATTGTAA	-0.0512	0.00645	-0.181	-0.471	-0.0681	-0.849	-0.136	0.0647	-0.0528	-0.0219
GTTAAGC	0.0213	0.0159	0.141	0.489	0.041	0.129	-0.00663	-0.0182	0.057	-0.0264
TACGGGG	0.0465	0.0386	0.503	0.761	0.0178	1.2	0.243	0.113	-0.154	0.0522
GAATCCG	-0.0125	-0.0531	-0.846	-0.664	-0.00361	-0.933	0.0994	-0.0308	-0.0592	-0.117
ACTCCAG	-0.0174	-0.00675	-0.641	-0.397	-0.0294	-1.17	0.14	-0.0521	0.0127	-0.207
CGATCGA	0.0753	0.0355	-0.207	-0.157	-0.0145	-0.758	0.0429	-0.0422	-0.21	-0.0491
ATAGCGA	9.46e-05	-0.0341	-0.683	0.0592	0.0693	-0.748	0.212	-0.0193	0.0655	-0.123
AACATTT	0.00295	-0.326	-1.03	-2.68	0.0229	-1.09	-3.35	-0.158	0.0268	-0.0978
CAATCTT	-3.9	-1.32	-4.15	-3.75	-0.185	-2.78	-3.84	-3.73	-0.463	-3.72
